# Measurements taken from the supplement of paper PMC8728848.
# Some of the results follow.
# B1: PNA (Arachis hypogaea), P02872 (protein)
# chain: MKPFCVFLTFFLLLAASSKKVDSAETVSFNFNSFSEGNPAINFQGDVTVLSNGNIQLTNLNKVNSVGRVLYAMPVRIWSSATGNVASFLTSFSFEMKDIKDYDPADGIIFFIAPEDTQIPAGSIGGGTLGVSDTKGAGHFVGVEFDTYSNSEYNDPPTDHVGIDVNSVDSVKTVPWNSVSGAVVKVTVIYDSSTKTLSVAVTNDNGDITTIAQVVDLKAKLPERVKFGFSASGSLGGRQIHLIRSWSFTSTLITTTRRSIDNNEKKIMNMASA
# Key:
# Experiment in all cases: glycan array binding signal (z-score within array); higher = stronger binding
# Details in all cases: glycan notation: IUPAC condensed, linker removed
# [1] = biological target: GlcNAc(b1-3)[GlcNAc(b1-6)]Gal(b1-4)GlcNAc(b1-3)[GlcNAc(b1-6)]Gal(b1-4)GlcNAc(b1-3)Gal(b1-4)Glc
# How it was run: (§1)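 The binding signal is a Z-score computed within each array. Data were drawn from 3228 arrays in the Consortium for Functional Glycomics database, restricted to those with a known protein sequence. Scores were averaged over arrays of the same protein sequence at different concentrations or buffers, and over linkers, and negative values can be taken as non-binding.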
# [2] = biological target: GlcNAc(b1-3)[GlcNAc(b1-6)]GalNAc
# How it was run: as §1
# [3] = biological target: GlcNAc(b1-3)[GlcNAc(b1-6)]GlcNAc(b1-4)GlcNAc
# How it was run: as §1
# GlcNAc(b1-4)Fuc = biological target: GlcNAc(b1-4)Fuc
# How it was run: as §1
# [4] = biological target: GlcNAc(b1-4)Gal(b1-4)GlcNAc
# How it was run: as §1
# GlcNAc(b1-4)GlcNAc = biological target: GlcNAc(b1-4)GlcNAc
# How it was run: as §1
# [5] = biological target: GlcNAc(b1-4)GlcNAc(b1-4)GlcNAc
# How it was run: as §1
# [6] = biological target: GlcNAc(b1-4)GlcNAc(b1-4)GlcNAc(b1-4)GlcNAc
# How it was run: as §1
# [7] = biological target: GlcNAc(b1-4)GlcNAc(b1-4)GlcNAc(b1-4)GlcNAc(b1-4)GlcNAc
# How it was run: as §1
# [8] = biological target: GlcNAc(b1-4)GlcNAc(b1-4)GlcNAc(b1-4)GlcNAc(b1-4)GlcNAc(b1-4)GlcNAc
# How it was run: as §1
# [9] = biological target: GlcNAc(b1-4)GlcNAc(b1-4)GlcNAc(b1-4)GlcNAc(b1-4)GlcNAc(b1-4)GlcNAc(b1-4)GlcNAc
# How it was run: as §1
# [10] = biological target: GlcNAc(b1-4)GlcNAc(b1-4)GlcNAc(b1-4)GlcNAc(b1-4)GlcNAc(b1-4)GlcNAc(b1-4)GlcNAc(b1-4)GlcNAc
# How it was run: as §1
# [11] = biological target: GlcNAc(b1-4)[GlcNAc(b1-6)]GalNAc
# How it was run: as §1
# [12] = biological target: GlcNAc(b1-6)Gal(b1-4)GlcNAc
# How it was run: as §1
# GlcNAc(b1-6)GalNAc = biological target: GlcNAc(b1-6)GalNAc
# How it was run: as §1
# GlcNAc3Prop(b1-4)GlcNAc = biological target: GlcNAc3Prop(b1-4)GlcNAc
# How it was run: as §1
# [13] = biological target: GlcNAc6S(b1-3)Gal(b1-4)GlcNAc
# How it was run: as §1
# [14] = biological target: HexA(a1-3)GalNAc4S(b1-4)GlcA(b1-3)GalNAc4S
# How it was run: as §1
# [15] = biological target: HexA(a1-3)GalNAc4S(b1-4)GlcA(b1-3)GalNAc4S(b1-4)GlcA(b1-3)GalNAc4S(b1-4)GlcA(b1-3)GalNAc4S(b1-4)GlcA(b1-3)GalNAc4S(b1-4)GlcA(b1-3)GalNAc4S(b1-4)GlcA(b1-3)GalNAc4S
# How it was run: as §1
# [16] = biological target: HexA(a1-3)GalNAc4S(b1-4)IdoA(a1-3)GalNAc4S
# How it was run: as §1
# [17] = biological target: HexA(a1-3)GalNAc4S(b1-4)IdoA(a1-3)GalNAc4S(b1-4)IdoA(a1-3)GalNAc4S(b1-4)IdoA(a1-3)GalNAc4S(b1-4)IdoA(a1-3)GalNAc4S(b1-4)IdoA(a1-3)GalNAc4S(b1-4)IdoA(a1-3)GalNAc4S
# How it was run: as §1
# [18] = biological target: HexA(a1-3)GalNAc6S(b1-4)GlcA(b1-3)GalNAc6S
# How it was run: as §1
# [19] = biological target: HexA(a1-3)GalNAc6S(b1-4)GlcA(b1-3)GalNAc6S(b1-4)GlcA(b1-3)GalNAc6S(b1-4)GlcA(b1-3)GalNAc6S(b1-4)GlcA(b1-3)GalNAc6S(b1-4)GlcA(b1-3)GalNAc6S(b1-4)GlcA(b1-3)GalNAc6S
# How it was run: as §1
# HexA2S(a1-4)GlcNS6S = biological target: HexA2S(a1-4)GlcNS6S
# How it was run: as §1
# [20] = biological target: HexA6S(a1-4)GlcNS6S(a1-4)IdoA2S(a1-4)GlcNS6S
# How it was run: as §1
# [21] = biological target: HexA6S(a1-4)GlcNS6S(a1-4)IdoA2S(a1-4)GlcNS6S(a1-4)IdoA2S(a1-4)GlcNS6S(a1-4)IdoA2S(a1-4)GlcNS6S(a1-4)IdoA2S(a1-4)GlcNS6S(a1-4)IdoA2S(a1-4)GlcNS6S(a1-4)IdoA2S(a1-4)GlcNS6S
# How it was run: as §1
# Kdn(a2-3)Gal(b1-3)GalNAc = biological target: Kdn(a2-3)Gal(b1-3)GalNAc
# How it was run: as §1
# [22] = biological target: Kdn(a2-3)Gal(b1-3)GalNAc(b1-4)[Kdn(a2-3)]Gal(b1-4)Glc
# How it was run: as §1
# Kdn(a2-3)Gal(b1-3)GlcNAc = biological target: Kdn(a2-3)Gal(b1-3)GlcNAc
# How it was run: as §1
# [23] = biological target: Kdn(a2-3)Gal(b1-3)GlcNAc(b1-3)Gal(b1-4)Glc
# How it was run: as §1
# Kdn(a2-3)Gal(b1-4)Glc = biological target: Kdn(a2-3)Gal(b1-4)Glc
# How it was run: as §1
# Kdn(a2-3)Gal(b1-4)GlcNAc = biological target: Kdn(a2-3)Gal(b1-4)GlcNAc
# How it was run: as §1
# [24] = biological target: Kdn(a2-3)Gal(b1-4)[Fuc(a1-3)]GlcNAc
# How it was run: as §1
# [25] = biological target: Kdn(a2-3)Gal(b1-4)[Fuc(a1-3)]GlcNAc(b1-3)Gal
# How it was run: as §1
# [26] = biological target: Kdn(a2-3)Gal(b1-4)[Fuc(a1-3)]GlcNAc(b1-3)Gal(b1-4)Glc
# How it was run: as §1
# [27] = biological target: Kdn(a2-3)Gal(b1-4)[Rha(a1-3)]GlcNAc(b1-3)Gal(b1-4)Glc
# How it was run: as §1
# [28] = biological target: Kdn(a2-3)[GalNAc(b1-4)]Gal(b1-4)Glc
# How it was run: as §1
# Kdn(a2-6)Gal = biological target: Kdn(a2-6)Gal
# How it was run: as §1
binder,measurement,setting,value
B1,glycan array binding signal (z-score),[1],2.02
same,glycan array binding signal (z-score),[2],-0.173
same,glycan array binding signal (z-score),[3],-0.199
same,glycan array binding signal (z-score),GlcNAc(b1-4)Fuc,-0.195
same,glycan array binding signal (z-score),[4],-0.247
same,glycan array binding signal (z-score),GlcNAc(b1-4)GlcNAc,-0.113
same,glycan array binding signal (z-score),[5],-0.075
same,glycan array binding signal (z-score),[6],-0.195
same,glycan array binding signal (z-score),[7],0.085
same,glycan array binding signal (z-score),[8],0.099
same,glycan array binding signal (z-score),[9],-0.195
same,glycan array binding signal (z-score),[10],-0.195
same,glycan array binding signal (z-score),[11],-0.177
same,glycan array binding signal (z-score),[12],-0.204
same,glycan array binding signal (z-score),GlcNAc(b1-6)GalNAc,-0.208
same,glycan array binding signal (z-score),GlcNAc3Prop(b1-4)GlcNAc,-0.125
same,glycan array binding signal (z-score),[13],-0.159
same,glycan array binding signal (z-score),[14],-0.195
same,glycan array binding signal (z-score),[15],-0.195
same,glycan array binding signal (z-score),[16],-0.195
same,glycan array binding signal (z-score),[17],-0.195
same,glycan array binding signal (z-score),[18],-0.195
same,glycan array binding signal (z-score),[19],-0.195
same,glycan array binding signal (z-score),HexA2S(a1-4)GlcNS6S,-0.195
same,glycan array binding signal (z-score),[20],-0.195
same,glycan array binding signal (z-score),[21],-0.195
same,glycan array binding signal (z-score),Kdn(a2-3)Gal(b1-3)GalNAc,-0.14
same,glycan array binding signal (z-score),[22],-0.195
same,glycan array binding signal (z-score),Kdn(a2-3)Gal(b1-3)GlcNAc,-0.26
same,glycan array binding signal (z-score),[23],-0.195
same,glycan array binding signal (z-score),Kdn(a2-3)Gal(b1-4)Glc,-0.178
same,glycan array binding signal (z-score),Kdn(a2-3)Gal(b1-4)GlcNAc,-0.187
same,glycan array binding signal (z-score),[24],-0.119
same,glycan array binding signal (z-score),[25],-0.195
same,glycan array binding signal (z-score),[26],-0.195
same,glycan array binding signal (z-score),[27],-0.195
same,glycan array binding signal (z-score),[28],-0.195
same,glycan array binding signal (z-score),Kdn(a2-6)Gal,-0.195
